In patent US20190218262A1 (published 2019):
“And” between values parts separate entries of the source, which are not always exact repeats. Identical values can stand only once.

Assays:
human BMP10 [1] = target: T1, human BMP10 (human, UniProt O95393 317-424); experiment: SPR (BIACORE), TWSG-Fc captured with anti-Fc antibody, 37 C
T1 construct: Bought from R&D Systems
T1 sequence (looked up): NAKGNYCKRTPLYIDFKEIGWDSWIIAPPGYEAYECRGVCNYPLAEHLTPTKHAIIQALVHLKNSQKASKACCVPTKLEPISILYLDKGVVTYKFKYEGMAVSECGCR

human BMP6 [2] = target: T2, human BMP6 (human, UniProt P22004 382-513, limits assumed); experiment: SPR (BIACORE), TWSG-Fc captured with anti-Fc antibody, ligand injected, 37 C
T2 construct: Bought from R&D Systems
T2 sequence (looked up): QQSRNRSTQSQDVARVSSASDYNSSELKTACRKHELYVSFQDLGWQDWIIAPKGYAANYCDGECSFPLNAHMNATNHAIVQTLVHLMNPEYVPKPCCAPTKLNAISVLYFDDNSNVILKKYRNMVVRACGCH
Source text: (§1) Previous studies have determined that TWSG, or its nonmammalian homolog Tsg, binds with high affinity to BMP2, BMP4, and BMP7 (Oelgeschläger et al., 2000, Nature 405:757-763; Scott et al., 2001, Nature 410:475-478; Chang et al., 2001, Nature 410:483-487). Since these studies have not systematically evaluated TWSG (or Tsg) binding to other TGFβ superfamily ligands, Applicants used surface plasmon resonance to investigate and characterize such binding. In an initial qualitative screen, recombinant murine TWSG (mTWSG; R&D Systems, Minneapolis, Minn.) was covalently immobilized on a BIACORE™ CMS chip, and more than 30 ligands generated in-house or obtained from R&D Systems were injected individually over the captured mTWSG to characterize their degree of binding at room temperature. Based on the results of this screen, Applicants subjected selected ligands to quantitative characterization of binding to human TWSG fusion protein at physiologic temperature. For this analysis, TWSG-Fc was expressed in CHO cells, purified as described in Example 1, captured on a BIACORE™ chip with anti-Fc antibody, and tested by surface plasmon resonance with the following ligands at 37° C.

human BMP2 [3] = target: T3, human BMP2 (human, UniProt P12643 283-396); experiment: as above
T3 construct: Bought from R&D Systems
T3 sequence (looked up): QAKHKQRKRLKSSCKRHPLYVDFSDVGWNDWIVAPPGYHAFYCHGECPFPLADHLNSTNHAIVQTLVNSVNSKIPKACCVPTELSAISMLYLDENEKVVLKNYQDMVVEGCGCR
Source text: as §1

human BMP7 [4] = target: T4, human BMP7 (human, UniProt P18075 293-431); experiment: as above
T4 construct: Bought from R&D Systems
T4 sequence (looked up): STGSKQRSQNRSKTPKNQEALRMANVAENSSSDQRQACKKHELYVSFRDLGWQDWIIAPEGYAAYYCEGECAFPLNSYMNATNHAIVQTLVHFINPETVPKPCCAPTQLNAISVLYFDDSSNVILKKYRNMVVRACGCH
Source text: as §1

human BMP9 [5] = target: T5, human BMP9 (human, UniProt Q9UK05 320-429); experiment: as above
T5 construct: Bought from R&D Systems
T5 sequence (looked up): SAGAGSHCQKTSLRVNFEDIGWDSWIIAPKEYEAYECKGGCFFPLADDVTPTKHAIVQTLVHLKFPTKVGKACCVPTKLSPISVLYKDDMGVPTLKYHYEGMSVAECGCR
Source text: as §1

human BMP4 [6] = target: T6, human BMP4 (human, UniProt P12644 293-408); experiment: as above
T6 construct: Bought from R&D Systems
T6 sequence (looked up): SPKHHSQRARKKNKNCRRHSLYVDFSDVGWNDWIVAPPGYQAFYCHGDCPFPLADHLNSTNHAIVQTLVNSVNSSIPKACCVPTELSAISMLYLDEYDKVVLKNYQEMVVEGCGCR
Source text: as §1

human BMP6 [7] = target: T2, human BMP6; experiment: cell-based or functional assay
human BMP2 [8] = target: T3, human BMP2; experiment: cell-based or functional assay
human BMP7 [9] = target: T4, human BMP7; experiment: cell-based or functional assay
human BMP10 [10] = target: T1, human BMP10; experiment: cell-based or functional assay
human BMP9 [11] = target: T5, human BMP9; experiment: cell-based or functional assay
human BMP4 [12] = target: T6, human BMP4; experiment: cell-based or functional assay

binding result (human BMP10 [1]): no binding | Kd (human BMP6 [2]): 0.23 nM | koff (human BMP6 [2]): 0.0019 s⁻¹ | kon (human BMP6 [2]): 8.2e+06 M⁻¹ s⁻¹ | Kd (human BMP2 [3]): 0.3 nM | koff (human BMP2 [3]): 0.0022 s⁻¹ | kon (human BMP2 [3]): 7.4e+06 M⁻¹ s⁻¹ | Kd (human BMP7 [4]): 0.33 nM | koff (human BMP7 [4]): 0.0016 s⁻¹ | kon (human BMP7 [4]): 4.8e+06 M⁻¹ s⁻¹ | Kd (human BMP9 [5]): 4.4 nM | koff (human BMP9 [5]): 0.025 s⁻¹ | Kd (human BMP4 [6]): 0.23 nM | koff (human BMP4 [6]): 0.0014 s⁻¹ | IC50, BRE-luciferase reporter gene assay (T98G or HepG2 cells) (human BMP6 [7]): 351 ng/mL and 3.7 nM | IC50, BRE-luciferase reporter gene assay (T98G or HepG2 cells) (human BMP2 [8]): 2960 ng/mL and 31 nM | IC50, BRE-luciferase reporter gene assay (T98G or HepG2 cells) (human BMP7 [9]): 1.5 nM | IC50, BRE-luciferase reporter gene assay (T98G or HepG2 cells) (human BMP10 [10]): > 3000 ng/mL and > 31 nM | IC50, BRE-luciferase reporter gene assay (T98G or HepG2 cells) (human BMP9 [11]): > 31 nM and > 3000 ng/mL | IC50, BRE-luciferase reporter gene assay (T98G or HepG2 cells) (human BMP4 [12]): 208 ng/mL and 2.2 nM
B1: human TWSG-Fc fusion protein (Fc fusion)
chain: CNKALCASDVSKCLIQELCQCRPGEGNCSCCKECMLCLGALWDECCDCVGMCNPRNYSDTPPTSKSTVEELHEPIPSLFRALTEGDTQLNWNIVSFPVAEELSHHENLVSFLETVNQPHHQNVSVPSNNVHAPYSSDKEHMCTVVYFDDCMSIHQCKISCESMGASKYRWFHNACCECIGPECIDYGSKTVKCMNCMFTG[no letters for human IgG1 Fc and a few adjoining residues]
notes: Captured on the chip with anti-Fc antibody for SPR; also called hTWSG-hFc; TWSG-hFc
